{
  "source": "ChEMBL document CHEMBL1125856",
  "about": "“The Interaction of Anhydroalditols with Sweet-Almond -glucosidase and Escherichia coli -galactosidase: implications for the design of potent glycosidase inhibitors” (Bioorg Med Chem Lett, 1991)",
  "conditions_in_all_cases": "Escherichia coli",
  "key": {"[1]": {"tested_on": "OC[C@H]1OC[C@H](O)[C@@H](O)[C@@H]1O", "assay": "(§1) Compound was evaluated for its Michaelis-Menten constant against E-coli Beta-galactosidase"}, "[2]": {"tested_on": "O[C@H]1[C@H](O)COC[C@@H]1O", "assay": "as §1"}, "O[C@@H]1COC[C@H]1O": {"tested_on": "O[C@@H]1COC[C@H]1O", "assay": "as §1"}, "[3]": {"tested_on": "OC[C@H]1OC[C@H](O)[C@@H](O)[C@H]1O", "assay": "as §1"}, "[4]": {"tested_on": "C[C@H]1OC[C@H](O)[C@@H](O)[C@H]1O", "assay": "as §1"}, "[5]": {"tested_on": "OC[C@H]1OC[C@@H](O)[C@H]1O", "assay": "as §1"}, "[6]": {"tested_on": "OC[C@H]1OC[C@@H](O)[C@@H]1O", "assay": "as §1"}},
  "data": [
    {"substance": "Beta-galactosidase (Escherichia coli) (no sequence given)", "values": [
      {"measurement": "Km", "setting": "[1]", "value": 32.6, "unit": "mM"},
      {"measurement": "Km", "setting": "[2]", "value": 15.2, "unit": "mM"},
      {"measurement": "Km", "setting": "O[C@@H]1COC[C@H]1O", "value": 15.2, "unit": "mM"},
      {"measurement": "Km", "setting": "[3]", "value": 0.048, "unit": "mM"},
      {"measurement": "Km", "setting": "[4]", "value": 35.9, "unit": "mM"},
      {"measurement": "Km", "setting": "[5]", "value": 0.048, "unit": "mM"},
      {"measurement": "Km", "setting": "[6]", "value": 32.6, "unit": "mM"}
    ]}
  ]
}
